PubChem BioAssay AID493035 (The Scripps Research Institute Molecular Screening Center, 2011)
Values joined by “and” are separate entries in the source; they are usually repeats but may differ in a detail not shown here. Identical values can stand only once. Among all 2,000 compounds or so, about 45 (2%) were called active.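 The calls were made as follows: active = inhibition above the mean of all tested compounds plus 3 SD (cut at about 49% in these data); inactive = the rest.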 The list shows a part of the results. Where a SMILES comes first, the peptide text is derived from it. [ ]: non-standard residue; d: D form. ξ: configuration not given here. ξV = CC(C)C(N)C(=O)O

molecular target: Perilipin-5 (Homo sapiens) + 1-acylglycerol-3-phosphate O-acyltransferase ABHD5 (Homo sapiens) (UniProt Q00G26+Q8WTS1); test: blockers of ABHD5 binding to perilipin-5 – cell lysate, split luciferase complementation, luminescence, NIH validation set, pilot screen (AID 493035);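 also: 0% = DMSO only wells while the 100% control is not stated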; conditions: split G. princeps luciferase complementation, lysates, 4 h; at 7.9 µM, active compounds read high
Sequence of UniProt Q00G26 (Q00G26 whole entry, looked up): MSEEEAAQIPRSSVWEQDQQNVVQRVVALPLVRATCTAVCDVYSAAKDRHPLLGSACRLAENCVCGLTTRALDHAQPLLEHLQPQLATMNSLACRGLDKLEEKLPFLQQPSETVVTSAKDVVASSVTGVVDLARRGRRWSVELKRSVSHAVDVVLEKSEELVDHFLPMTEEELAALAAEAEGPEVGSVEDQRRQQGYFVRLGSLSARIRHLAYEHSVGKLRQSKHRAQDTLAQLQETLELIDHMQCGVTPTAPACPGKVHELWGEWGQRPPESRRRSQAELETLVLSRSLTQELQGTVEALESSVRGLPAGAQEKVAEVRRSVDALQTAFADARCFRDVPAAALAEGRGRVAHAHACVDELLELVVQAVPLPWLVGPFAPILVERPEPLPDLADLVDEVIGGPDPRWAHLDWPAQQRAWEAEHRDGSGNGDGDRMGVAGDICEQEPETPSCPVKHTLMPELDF
Sequence of UniProt Q00G26 (Q8WTS1 whole entry, looked up): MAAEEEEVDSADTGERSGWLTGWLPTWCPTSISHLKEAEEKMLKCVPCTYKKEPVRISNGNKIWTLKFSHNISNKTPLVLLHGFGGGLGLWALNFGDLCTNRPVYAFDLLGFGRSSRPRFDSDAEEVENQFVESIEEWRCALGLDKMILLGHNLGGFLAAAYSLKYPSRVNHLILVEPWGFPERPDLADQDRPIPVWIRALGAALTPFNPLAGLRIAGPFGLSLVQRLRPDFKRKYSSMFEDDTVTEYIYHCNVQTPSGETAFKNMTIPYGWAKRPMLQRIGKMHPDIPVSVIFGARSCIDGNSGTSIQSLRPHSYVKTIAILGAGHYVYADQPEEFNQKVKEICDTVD

Compound | inhibition
CC(=O)OCC(=O)[C@@]1(OC(C)=O)[C@@H](C)C[C@H]2[C@@H]3C[C@H](F)C4=CC(=O)C=C[C@]4(C)[C@@]3(F)[C@@H](O)C[C@@]21C | inactive: -7.9%
CC(N=C(NC#N)Nc1ccncc1)C(C)(C)C (centres undefined) | inactive: -5.72%
COc1ccc(CN(C)CCc2ccccn2)cc1OC | inactive: -9.76%
S=C(NCc1ccccc1)NCc1cccc(CNC(=S)NCc2ccccc2)c1 | inactive: 10.2%
Oc1[nH]c2ccccc2c1N=Nc1ccccc1 | inactive: 1.06%
C=CCn1c(N2CCCCCC2)nc2c1c(=O)n(C)c(=O)n2C | inactive: 0.31%
CCOC(=O)Cn1c(C)cc(=O)c2ccccc21 | inactive: 8.9%
CC(=O)OCC(=O)[C@H]1CC[C@H]2[C@@H]3CCC4=CC(=O)CC[C@]4(C)[C@H]3CC[C@]12C | inactive: -0.63%
COc1cc2nc(-c3ccccc3)nc(N3CCCC3)c2cc1OC | inactive: 2.89%
C#C[C@]1(O)CC[C@H]2[C@@H]3CCC4=CC(=O)CC[C@@H]4[C@H]3CC[C@@]21CC | inactive: -7.35%
O=c1[nH]c(Cc2ccccc2)nc2c1oc1ccccc12 | inactive: -8.6%
O=C(NO)c1ccccc1O | inactive: -11.8%
Cc1cccc(NC(=O)c2cc3ccccc3o2)c1 | inactive: -6.38%
c1ccc(CN(CC2=NCCN2)c2ccccc2)cc1 | inactive: -2.78% and inactive: -2.7%
O=C(NCCN1CCN(c2ccccc2)CC1)c1cccc(Br)c1 | inactive: -10.2%
CC(C)CN1CCN(Cc2ccc3ncccc3c2)CC1CCO (centres undefined) | inactive: -10.9%
CCOc1ccc(CCn2c(-c3ccco3)nc3ccccc3c2=O)cc1OCC | inactive: 5.88%
COc1ccc(/C=C2\CCn3c2nc2cc(C(=O)O)ccc2c3=O)cc1OC | inactive: -3.54%
COc1ccc(O)c(N)c1 | inactive: 33.6%
COc1cc2c3c(c1)C(C)CC(C)(C)N3C(=O)C2=O (centres undefined) | inactive: 3.84%
S=C(c1ccc2c(c1)OCO2)N1CCCCC1 | inactive: 7.46%
COc1ccc(C(=O)NCc2cccnc2)cc1 | inactive: -0.13%
CC(=O)Nc1ccccc1O | inactive: 1.71%
O=c1cc(Cn2ccnc2)c2cc3c(cc2o1)CCC3 | inactive: 7.19%
O=c1oc2c(CN3CCN(CCO)CC3)c(O)ccc2cc1-c1ccccn1 | inactive: 0.47%

Compound | inhibition
CCOC(=O)c1cnc2ccc(C(=O)OC)cc2c1Nc1ccc2c(c1)OCCO2 | inactive: 4.48%
Cc1ccc2c(c1)C(O)(CC(=O)/C=C/C=C/c1ccccc1)C(=O)N2 (centres undefined) | inactive: 24.3%
COc1ccccc1OCC(=O)O | inactive: -2.3%
CCCCC/C=C\C[C@H](O)/C=C/c1cccc(C[C@H](O)CCCCO)n1 | active: 62.8%
COc1ccc(C2C3=C(CC(C)(C)CC3=O)N(C)C3=C2C(=O)CC(C)(C)C3)cc1 | inactive: -2.33%
C#CCN(C)CCCOc1ccc(Cl)cc1Cl | inactive: -7.85%
Cc1c(NC(=O)c2cccs2)cccc1[N+](=O)[O-] | inactive: -6.81%
Cc1nc2cc3ccccc3cc2c(=O)[nH]1 | inactive: -4.91%
COc1cccc(CN2C(=O)N(C(C)C)C(N(O)C(=O)NC(C)C)C2(C)C)c1OC (centres undefined) | inactive: 3.16%
COc1ccc2c(c1)[nH]c1c(=O)n(Cc3ccccn3)cnc12 | inactive: -7.19%
Cn1c(=O)[nH]c(=O)c2c1nc(NCc1ccco1)n2CCCc1ccccc1 | inactive: -10%
CC1(C)CC(=O)c2cnc(NC(=O)C3CCCC3)nc2C1 | inactive: -3.56%
COc1ccc(-n2cc(CNCc3cccnc3)c(-c3cccc(F)c3)n2)cc1 | inactive: -9.1%
Cn1c(=O)c2c(ncn2CCO)n(C)c1=O | inactive: -4.57%
O=C1CC(c2ccc(F)cc2)Cc2nc(NCC3CCCO3)ncc21 (centres undefined) | inactive: -4.51%
CNCCCN1c2ccccc2CCc2ccccc21 | inactive: -21.2%
C[n+]1ccccc1/C=N/O | inactive: -9.84% and inactive: -11.4%
COc1ccc(CN2CCCCC2C(=O)Nc2ccc(OC)c(OCC(C)C)c2)cc1OC (centres undefined) | inactive: -8.58%
CCC(C)n1ncn(-c2ccc(N3CCN(c4ccc(OCC5COC(Cn6cncn6)(c6ccc(Cl)cc6Cl)O5)cc4)CC3)cc2)c1=O (centres undefined) | inactive: 7.17%
Cc1cccc(Nc2ccccc2C(=O)O)c1C | inactive: -3.59%
CCOc1ncnc2c1[nH]c1ccccc12 | inactive: -0.72%
CC1(C)S[C@@H]2[C@H](NC(=O)Cc3ccccc3)C(=O)N2[C@H]1C(=O)O | inactive: 0.2%
Cc1cc(=O)c2c(O)c(O)ccc2o1 | inactive: -3.3%
CCCCCCCC(=O)OCC(=O)[C@@]1(O)CC[C@H]2[C@@H]3CCC4=CC(=O)CC[C@]4(C)[C@H]3[C@@H](O)C[C@@]21C | inactive: -10.7%
COc1cc(OC)c(-c2nc3cnccc3n2C)cc1OC | inactive: -12.5%

Compound | inhibition
COc1cccc(OCC(O)CO)c1 (centres undefined) | inactive: -6.51%
CCOC(=O)N1c2ccccc2C=CC1OCC (centres undefined) | inactive: 5.45%
CC(C)CN1CCN(Cc2cccn2-c2ccccn2)CC1CCO (centres undefined) | inactive: -3.71%
CCC(=O)c1ccc(OCc2ccc(C(=O)OC)cc2)cc1 | inactive: -2.89%
COc1cc(/C=C/C(=O)CC(=O)/C=C/c2ccc(O)c(OC)c2)ccc1O | inactive: 47.6%
CC1(C)C(C=C(Cl)Cl)C1C(=O)N1CCN(Cc2ccccc2)CC1 (centres undefined) | inactive: -7.72%
CNC(=O)Oc1ccc2c(c1)[C@]1(C)CCN(C)[C@@H]1N2C | inactive: -11.1%
CC12CN3CC(C)(CN(C1)C3c1ccc(Cl)cc1Cl)C2=O (centres undefined) | inactive: -5.63%
Cc1cc(O)c(C(=O)Cc2csc(C)n2)c(O)c1 | inactive: 4.2%
O=c1[nH]cnc2[nH]ncc12 | inactive: 5.6%
CN(C)C(=O)Oc1cccc([N+](C)(C)C)c1 | inactive: -4.57% and inactive: -0.44%
CN1CCC(OC(c2ccccc2)c2ccccc2)CC1 | inactive: -7.92%
NC(CO)C(=O)NNCc1ccc(O)c(O)c1O (centres undefined) | inactive: 8.62%
CN(C)CCCN1c2ccccc2CCc2ccccc21 | inactive: -8.22%
COc1ccc2cc(C(=O)OC(C)C)sc(=O)c2c1OC | inactive: 2.52%
C[C@H]1O[C@H]1P(=O)(O)O | inactive: 0.56%
CCOC(=O)c1ccc(N2C(=O)C(CC(N)=O)N(CCc3ccc(OC)c(OC)c3)C2=S)cc1 (centres undefined) | inactive: 5.64%
COc1ccc2[nH]cc(CCNC(=O)C3CCCNC3=O)c2c1 (centres undefined) | inactive: -8.85%
CC1COc2c(N3CCN(C)CC3)c(F)cc3c(=O)c(C(=O)O)cn1c23 (centres undefined) | inactive: -4.62%
CCN(CC)C(=O)c1sc(NC(=O)c2c(OC)cccc2OC)c(C#N)c1C | inactive: -4.18%
O=C(O)/C=C/c1cnc[nH]1 | inactive: -5.36%
NCc1ccccc1COc1ccccc1 | inactive: 1.14%
COCCCNc1nc2c([nH]1)c(=O)[nH]c(=O)n2C | inactive: -7.06%
CC(=O)OCC[N+](C)(C)C | inactive: -7.72% and inactive: -5.15%
CC[n+]1ccc2cc(OC)c(OC)cc2c1Cc1ccc(OC)c(OC)c1 | inactive: -6.43%

Compound | inhibition
O=C(/C=C/c1ccc2c(c1)OCO2)c1ccccn1 | active: 55.7%
Cn1c(=O)c(C(=O)NCCO)c(O)c2ccccc21 | inactive: -4.23%
CN1C(=O)C(O)(CC(=O)/C=C/C=C/c2ccccc2)c2ccccc21 (centres undefined) | inactive: 10.8%
Cn1cc(C2N3CC4(C)CN2CC(C)(C3)C4=O)c2ccccc21 (centres undefined) | inactive: -3.41%
OCCN(CCO)c1ccc2ccccc2c1 | inactive: -10.7%
CN(C)[C@@H]1C(=O)C(C(N)=O)=C(O)[C@@]2(O)C(=O)C3=C(O)c4c(O)ccc(Cl)c4[C@@H](O)[C@H]3C[C@@H]12 | inactive: 0.22%
CC(C)(C)C(=O)NC(=S)NNC(=O)c1ccncc1 | inactive: -6.37%
CC(C)Oc1cccc(C(=O)N2CCCC2)c1 | inactive: -2.57%
O=S(=O)(CCc1nc2ccccc2[nH]1)c1ccc(Cl)cc1 | inactive: -10.2%
C[N+](C)(C)CCOP(=O)([O-])OC[C@H](O)CO | inactive: 1.67%
CC(=O)NC(Cc1c[nH]c2ccccc12)C(=O)N/N=C/c1ccccc1 (centres undefined) | inactive: -0.25%
CN(C)C(=O)CCCCCCCCC(=O)N(C)C | inactive: -2.31%
Cc1nc(NCc2ccco2)c(C#N)c2c1COC(C)(C)C2 | inactive: -11.6%
COc1ccc(-c2nc(NC(C)=O)sc2-c2ccc(OC)cc2)cc1 | inactive: 2.96%
CC(C)(C)NCC(O)COc1cccc2c1C[C@H](O)[C@H](O)C2 (some centres undefined) | inactive: 0.05%
COCCc1ccc(OCC(O)CNC(C)C)cc1 (centres undefined) | inactive: -9.46%
O=C1CN(O)C=C2N=c3ccccc3=C2N1c1ccc([N+](=O)[O-])cc1 | inactive: 6.34%
CC(=O)NC(C(=O)NCC(N)=O)C(C)C (centres undefined) (Ac-[ξV]-Gly-NH2) | inactive: -1.32%
CC(C)Cc1ccc(C(C)C(=O)O)cc1 (centres undefined) | inactive: 0.26%
CC(C)NC(=O)c1ccc(C(C)C)cc1 | inactive: 8.97%
O=C1C2C3C=CC(C4CC34)C2C(=O)N1/N=C/c1ccc(-c2ccc([N+](=O)[O-])cc2)o1 (centres undefined) | inactive: -2%
c1ccc(Nc2cccc3c(Nc4ccccc4)cccc23)cc1 | inactive: 8.61%
COc1cc(C(=O)Nc2ccc(N(C)C)cc2)c([N+](=O)[O-])cc1OC | inactive: 14.1%
O=C1[C@@H]2CSCN2C(=O)CN1Cc1ccc(F)cc1 | inactive: -11.8%
